# According to PubChem BioAssay AID1159614 (National Center for Advancing Translational Sciences (NCATS), 2016):
# The whole screen tested about 45,000 compounds, of which about 65 (0.1%) were called active. Calls follow the shape of the dose curve; as a rule, active = well fitted activation curve with a large enough effect; inconclusive = small, poorly fitted or top-dose-only effect; inactive = no such curve, though single readings can be large or run the other way. This is one part of the list.
# Biological target: Galactocerebrosidase (Homo sapiens) (UniProt P54803)
# Test: A Novel Cell-Based Assay to Identify Small Molecules for B -Galactocerebrosidase; also: 0% is about no effect; nearly all actives have a fitted effect of over 65% in size
# Conditions: 145M-Twi-hGALC-G270D cells (Twitcher mouse brain line with human GALC G270D), HMU-beta-Gal fluorescence, 48 h; series mostly up to 57.5 µM; activation: at the top concentration
# Summary of the method: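 Fluorogenic HMU-b-Gal hydrolysis (0.1 mM final, pH 5.2 citrate-phosphate with 1 mg/mL sodium taurocholate; carbonate stop buffer) measures mutant GALC activity after compound treatment of live 145M-Twi Twitcher brain cells stably carrying human GALC-G270D, with wild-type GALC line alongside; activation sought.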
# Chain of UniProt P54803 (P54803 whole entry, looked up): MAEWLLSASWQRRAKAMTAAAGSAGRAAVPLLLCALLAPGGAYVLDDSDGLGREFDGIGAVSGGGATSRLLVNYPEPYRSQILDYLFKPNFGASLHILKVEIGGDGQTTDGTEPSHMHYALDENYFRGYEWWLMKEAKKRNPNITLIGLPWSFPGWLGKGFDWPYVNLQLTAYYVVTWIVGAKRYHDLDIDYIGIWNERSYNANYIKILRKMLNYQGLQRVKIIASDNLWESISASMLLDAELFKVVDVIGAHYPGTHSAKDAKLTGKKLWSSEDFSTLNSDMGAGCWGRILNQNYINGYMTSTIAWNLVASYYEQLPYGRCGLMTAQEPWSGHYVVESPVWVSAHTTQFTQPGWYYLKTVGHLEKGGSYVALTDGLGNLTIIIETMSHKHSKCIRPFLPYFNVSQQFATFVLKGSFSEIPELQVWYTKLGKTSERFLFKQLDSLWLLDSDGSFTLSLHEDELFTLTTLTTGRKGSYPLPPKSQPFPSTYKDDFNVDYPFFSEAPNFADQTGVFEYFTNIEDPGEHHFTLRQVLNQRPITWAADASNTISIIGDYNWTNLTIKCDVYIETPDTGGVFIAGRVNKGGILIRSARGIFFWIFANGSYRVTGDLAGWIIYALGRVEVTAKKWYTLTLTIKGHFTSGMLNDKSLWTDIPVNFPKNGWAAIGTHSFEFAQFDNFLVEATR
row,Structure (SMILES),activation
1,Cc1cccc(N2CCN(C(=O)CCC(=O)NNc3nc4ccccc4c4nc(C)nn34)CC2C)c1 (configuration not stated),inactive: -20.3%
2,Cn1c(=O)c2c(-c3ccccc3Cl)n(Cc3ccc(Cl)cc3)cc2n(C)c1=O,inactive: -14.3%
3,COc1ccc(S(=O)(=O)n2nc(-c3ccco3)nc2NCc2ccc(OC)c(OC)c2)cc1,inactive: -8.29%
4,COc1ccc(N(C(=O)c2ccc(Cl)cc2)S(=O)(=O)c2ccc(C)cc2)cc1,inactive: -12.2%
5,Cc1ccc(N2CC(c3nnc(Cc4ccccc4Cl)o3)CC2=O)cc1 (configuration not stated),inactive: -10.2%
6,CCOc1ccc(CNCc2c(C(=O)O)n(Cc3ccc(OC)cc3)c3ccccc23)cc1,inactive: -14.6%
7,COc1ccc(-c2nc3c(C#N)c[nH]n3c2NC2CCCC2)cc1,inactive: -3.32%
8,COc1ccccc1Cc1nc2ccccc2nc1SCC(=O)Nc1ccccc1C(F)(F)F,inactive: -0.996%
9,CCCN(c1ccccc1F)S(=O)(=O)c1cc(-c2cc(C)no2)ccc1C,inactive: -4.28%
10,CC(C)(C)C1CCc2c(sc(NC(=O)c3cc(-c4ccc(F)cc4)on3)c2C#N)C1 (configuration not stated),inactive: 11.5%
11,CCC(C(=O)NCCc1ccc(OC)c(OC)c1)n1nc(C)c2sc3ccccc3c2c1=O (configuration not stated),inactive: 2.27%
12,Cc1ccc(OCC(=O)OCc2cc(=O)n3nc(C4CC4)sc3n2)cc1C,inactive: -1.99%
13,Cc1cc(C)cc(-n2ccn3cnnc3c2=O)c1,inactive: 6.14%
14,CCCCCCSc1nc(N)c2c3c(sc2n1)CCCC3C (configuration not stated),inactive: -12.5%
15,CSc1cccc(Nc2cc(C(=O)NC3CCCCC3)c3ccccc3n2)c1,inactive: 9.51%
16,COc1ccc(C)cc1NC(=O)Cn1c(=O)oc2cc(S(=O)(=O)N3CCCCCC3)ccc21,inactive: -18.9%
17,CCc1ccc2occ(CC(=O)Nc3c(C(=O)c4ccc(F)cc4)oc4ccccc34)c2c1,inactive: -17.4%
18,CCCN(CCC)c1cc(C)nc2nc(-c3ccc(C(C)(C)C)cc3)nn12,inactive: 3.94%
19,CN(C)c1ccc(-c2nc3ccc(Cl)cn3c2Nc2ccc3c(c2)OCCO3)cc1,inactive: 0.0263%
20,Cc1cc(C)cc(N2C(=O)CSC23C(=O)N(CC(N)=O)c2ccccc23)c1 (configuration not stated),inactive: -8.36%
21,Cn1nc(-c2ccccc2)c(-c2ccccc2)c(C(=O)Nc2ccccc2C(N)=O)c1=O,inactive: -6.58%
22,CCOC(=O)c1ccc(NC(=O)c2cc(=O)c3ccc(C)c(C)c3o2)cc1,inactive: -11.6%
23,CC(=O)N1CCc2cc(Br)cc(S(=O)(=O)CCC(=O)N3CCN(c4cccc(C)c4C)CC3)c21,inactive: -10%
24,COCCN(Cc1ccc(C)c(Br)c1)S(=O)(=O)c1ccc2[nH]c(=O)ccc2c1,inactive: -10.3%
25,CCOCCCNC(=O)Cn1ncc2c([nH]c3ccc(C)cc32)c1=O,inactive: -8.96%

row,Structure (SMILES),activation
1,Cc1ccc(C)c(N2CCN(C3(c4ccccc4)C(=O)c4ccccc4C3=O)CC2)c1,inactive: -13.7%
2,CCCN(CCC)CCNC(=O)c1cc2c(=O)oc3ccc(C)cc3c2s1,inactive: 4.23%
3,CC(C)Cc1nn2c(=O)cc(COC(=O)c3cccc(NC(=O)c4ccccc4)c3)nc2s1,inactive: -14.8%
4,COc1ccc(NC(=O)c2cc(C3CC3)nc3c2c(C)nn3-c2ccccc2)c(OC)c1,inactive: -5.19%
5,Cc1c(C(=O)Nc2cccc(C(F)(F)F)c2)sc2nc3n(c(=O)c12)CCC3,inactive: -15.3%
6,Cc1cccc(Cn2cc3c(=O)n(CC(=O)Nc4cccc(C)c4C)nc-3c3cc(F)ccc32)c1,inactive: -3.86%
7,Cc1cccc(N2CCN(C(=O)c3cc4ccc5cccnc5c4[nH]3)CC2)c1C,inactive: -13.6%
8,CCc1ccccc1NC(=O)N1CCN(Cc2nc3ccc(C)cc3o2)CC1,inactive: -9.6%
9,COCCn1c(C)cc(O)c(C(c2ccccc2)N2CCCCC2)c1=O (configuration not stated),inactive: -10.8%
10,Cc1ccc(-n2ncc3c(Nc4ccc(Oc5ccccc5)cc4)ncnc32)cc1,inactive: -10.4%
11,Clc1ccccc1CNCCCSc1nnnn1-c1ccccc1,inactive: -13.4%
12,Cc1noc(C)c1S(=O)(=O)N(CC(=O)Nc1ccc(C(F)(F)F)cc1)c1ccc(C(C)C)cc1,inactive: -5.05%
13,CCOc1ccc(/C=C/c2nc(C#N)c(NCc3ccc(OC)cc3)o2)cc1,inactive: -5.35%
14,CCOCCCNC(=O)Cn1ncc2c([nH]c3ccccc32)c1=O,inactive: -5.48%
15,O=C(CCCN1CCC(O)(c2ccc(Cl)cc2)CC1)c1ccc(F)cc1,inactive: -12%
16,O=C(NCc1ccc2c(c1)CCN2C(=O)c1ccc(F)cc1)c1c(F)cccc1F,inactive: -13.6%
17,COc1cccc(-c2noc(-c3cc4ccccc4oc3=O)n2)c1OC,inactive: 2.14%
18,CCN(CC)S(=O)(=O)c1ccc2c(c1)N(CC(=O)Nc1cccc(C)c1C)C(=O)C1CCCN21 (configuration not stated),inactive: -13.2%
19,CCOC(=O)N1CCN(Cc2nc3cc(NC(=O)CC(C)C)ccc3n2C(C)C)CC1,inactive: -5.5%
20,COC(=O)c1ccc(NC(=O)C(=O)NCCc2csc3nc(-c4ccccc4F)nn23)cc1,inactive: -11.4%
21,CC1=C(C(=O)Nc2ccccc2)C(c2ccc(F)cc2)n2nc(SCc3cc(C)ccc3C)nc2N1 (configuration not stated),inactive: -11.5%
22,CCOc1ccccc1NC(=O)CSc1cn(CC(=O)N2CCCCCC2)c2ccccc12,inactive: -0.77%
23,COc1cc(OC)c(NC(=O)C(CC(C)C)N2Cc3ccccc3C2=O)cc1Cl (configuration not stated),inactive: -22.9%
24,Cc1ccc(NC(=O)CCN2C(=O)c3ccccc3Sc3ncccc32)cc1,inactive: -0.662%
25,Nc1nonc1-c1nc2ccccc2n1CC(=O)Nc1cccc(C(F)(F)F)c1,inactive: -2.22%

row,Structure (SMILES),activation
1,COc1ccc(C)cc1NC(=O)CSc1ncc2c(n1)-c1ccc(Cl)cc1N(Cc1ccccc1)S2(=O)=O,inactive: 0.195%
2,CCCN1CCN(CCCNC(=O)c2cc3c(s2)-c2c(C)cccc2OC3)CC1,inactive: -0.683%
3,NC(=O)c1c(NC(=O)CS(=O)(=O)c2ccc(Cl)cc2)sc2c1CCCC2,inactive: -24.2%
4,O=C(c1cccc(Cl)c1)N(Cc1cccc(F)c1)C1CCS(=O)(=O)C1 (configuration not stated),inactive: -8.79%
5,COc1ccc(NC(=O)C2CCCN(S(=O)(=O)c3ccc4[nH]c(=O)ccc4c3)C2)cc1Cl (configuration not stated),inactive: -4.93%
6,COC(=O)c1cc2sccc2n1Cc1c(C)cc(C)cc1C,inactive: -13.2%
7,COc1ccc(S(=O)(=O)N(CCc2ccccc2)CC(=O)Nc2cc(Cl)ccc2C)cc1,inactive: -10.1%
8,CCCSc1nnc(NC(=O)c2cc(=O)c3ccccc3o2)s1,inactive: -15.9%
9,CCOC(=O)N1CCc2c(sc3c2c(=O)n(CCc2ccccc2)c(=O)n3CC(=O)Nc2ccccc2C)C1,inactive: -10.8%
10,Cc1ccc(NC(=O)C2CCN(C(=O)c3sc4nc[nH]c(=O)c4c3C)CC2)cc1F,inactive: 1.06%
11,Cc1ccc(-c2nn(CCC(=O)Nc3ccc(OC(F)(F)F)cc3)c(=O)c3ccccc23)cc1,inactive: 1.11%
12,Cc1ccc(C)c(OCCCC(C)(C)C(=O)O)c1,inactive: -7.88%
13,CCOc1cccc(C(=O)N(Cc2ccc(C(C)C)cc2)C2CCS(=O)(=O)C2)c1 (configuration not stated),inactive: -5.27%
14,COc1ccccc1C(=O)Nc1ccccc1OCc1cc(=O)n2cc(C)sc2n1,inactive: -9.04%
15,CCCCCn1c(CCCNC(=O)c2ccccc2)nc2ccccc21,inactive: -6.67%
16,O=C(Nc1ncc(Cc2ccc(F)cc2)s1)c1ccc2c(c1)CC(c1ccccc1)OC2=O (configuration not stated),inactive: -8.04%
17,CCCC(=O)N1c2nc(-c3ccco3)nn2C2(CCCCC2)[C@@H]2CCCC[C@@H]21,inactive: 2.84%
18,COc1cccc(NC(=O)Cn2c(=O)n(-c3ccc(C)cc3)c(=O)c3ccccc32)c1,inactive: -7.98%
19,CCN1C(=O)C(Cc2nc3ccccc3c(=O)n2-c2cccc(C)c2)c2ccccc21 (configuration not stated),inactive: -16.8%
20,Cc1ccc(-c2noc(-c3ccccc3OCC(=O)Nc3ccccc3[N+](=O)[O-])n2)cc1,inactive: 14.3%
21,Cc1ccccc1NC(=O)c1c(C)oc2ccc(O)c(CN(C)Cc3ccccc3)c12,inactive: -17.4%
22,CC(C)Oc1ccc(C(=O)NCCc2csc(-c3cccc(F)c3)n2)cc1,inactive: -6.65%
23,Cc1cccc(N(C)C(=O)Cn2cnc3nc4c(cc3c2=O)CCCC4)c1,inactive: -12.8%
24,Cc1nnc(N2CCC(C(=O)NC3CCC(C)CC3)CC2)c2nn(-c3ccc(Cl)cc3)c(C)c12 (configuration not stated),inactive: -0.479%
25,Cc1ccccc1NC(=O)CSc1nccn1C,inactive: -20.1%

row,Structure (SMILES),activation
1,Cc1nn(C)c2c1c(C(F)(F)F)cc(=O)n2CC(=O)Nc1ccc(F)cc1F,inactive: -7.72%
2,Cc1cc(F)ccc1NC(=O)C1CCCN(C(=O)c2cnn(-c3ccccc3)c2-n2cccc2)C1 (configuration not stated),inactive: 7.03%
3,COc1ccc(OC(=O)c2cn(-c3cccc(OC)c3)c(=O)c3ccccc23)cc1,inactive: -13%
4,Cc1ccc(OC(C)C(=O)N2CCN(CCc3ccccn3)CC2)cc1C (configuration not stated),inactive: -11%
5,O=S(=O)(NCC(c1ccco1)S(=O)(=O)c1cccs1)c1ccccc1 (configuration not stated),inactive: -4.09%
6,Cc1cc(C)c(NC(=O)C(C)n2nc(C)c3sc4ccccc4c3c2=O)c(C)c1 (configuration not stated),inactive: -19.7%
7,COc1cccc(N2CC(NC(=O)c3cccs3)CC2=O)c1 (configuration not stated),inactive: -14.5%
8,O=C(O)C(=O)Nc1cccc(-c2nn[nH]n2)c1,inactive: -3.7%
9,Cc1cc(Cl)ccc1NC(=O)C1CCCN(c2nnc(C)c3c(C)n(-c4ccccc4)nc23)C1 (configuration not stated),inactive: -10.5%
10,CC(CCc1ccccc1)NC(=O)CSc1n[nH]c(-c2ccccc2Cl)n1 (configuration not stated),inactive: -13.5%
11,CCc1ccc(CNC(=O)c2ccc(Cn3c(=O)c4cccn4c4cccnc43)cc2)cc1,inactive: -6.61%
12,CCCc1nnc(NC(=O)CSc2nnc3c4ccccc4n(CC)c3n2)s1,inactive: -19.7%
13,Cc1nc2ccccc2n1CCc1nc2c3ccccc3nc(SCc3ccccc3F)n2n1,inactive: -1.38%
14,Cc1cccc(OCC(=O)Nc2ccc3nc(SCc4ccccc4)sc3c2)c1,inactive: 1.47%
15,COc1ccc(N(CC(=O)N2CCN(c3cccc(Cl)c3)CC2)S(=O)(=O)c2c(C)noc2C)cc1,inactive: -11.8%
16,CCOc1ccc(C(=O)N2CC(=O)Nc3ccc(F)cc3C2c2ccc(F)cc2)cc1 (configuration not stated),inactive: -8.54%
17,COCCn1c(C)cc(O)c(C(c2cccc(F)c2)N2CCN(c3ccccc3)CC2)c1=O (configuration not stated),inactive: -19.1%
18,CC(C)NC(=O)C1CCCN(S(=O)(=O)c2ccc3c(ccn3C)c2)C1 (configuration not stated),inactive: -12.3%
19,CCc1cccc(C)c1NC(=O)c1cc(CN2CCCC2)on1,inactive: -7.58%
20,O=C(Nc1ccc2oc(-c3cccc4c(Br)cccc34)nc2c1)c1cccc(Cl)c1,inactive: -19.1%
21,COc1cc(C(=O)N2CCCCCCC2)cc(OC)c1OC,inactive: -16.6%
22,CCc1nnc2c(Nc3cc(OC)c(Cl)cc3OC)nc3ccccc3n12,inactive: -6.61%
